In the supplement of paper PMC4166925:
± gives the standard deviation of the averaged measurements. The full ranking holds about 33,000 sequences; the median of “E-score (dimensionless, -0.5 to 0.5)” is about -0.049, and the highest 2% start at about 0.37. Some of the results follow.

These sequences were tested on T1, PmTbr T-box DNA-binding domain (GST fusion) (assay: PBM E-score of 8-mer (E-score (dimensionless, -0.5 to 0.5)); Tbr is Tbrain of the sea star Patiria miniata (Pm) or the sea urchin Strongylocentrotus purpuratus (Sp); higher = stronger binding preference; most listed sequences are background and not binding sites). Conditions: the construct has about 5 more residues each side.
T1 sequence: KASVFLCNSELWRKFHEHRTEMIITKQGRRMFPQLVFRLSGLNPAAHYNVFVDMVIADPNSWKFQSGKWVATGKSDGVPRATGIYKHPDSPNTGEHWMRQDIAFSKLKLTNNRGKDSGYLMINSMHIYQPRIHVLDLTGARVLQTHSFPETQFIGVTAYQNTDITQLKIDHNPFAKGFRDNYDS
Summary of the method: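 GST-fused Tbr T-box DNA-binding domains (the whole T-box plus about five flanking residues) were expressed in BL21 E. coli at 20 °C and purified by glutathione affinity chromatography. Universal Agilent oligonucleotide arrays were made double-stranded by primer extension, incubated with 200 nM protein in PBS (pH 7.5), then scanned and quantified. Every ungapped 8-mer was scored from probe intensities. The Universal PBM Analysis Suite gave each word an enrichment E-score, averaged over duplicate arrays.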

| Sequence | PBM E-score of 8-mer |
| --- | --- |
| CTGCAAGC | -0.244 ± 0.094 |
| CCAGCAGA | -0.00462 ± 0.083 |
| GAATAGAC | -0.0937 ± 0.043 |
| CCAAAAGG | 0.0645 ± 0.019 |
| GTTGATCA | 0.0616 ± 0.0014 |
| CCTCAATC | -0.093 ± 0.064 |
| ACATAATA | -0.0608 ± 0.017 |
| GTGGGTGA | 0.197 ± 0.026 |
| ACTGATGA | -0.198 ± 0.046 |
| GAAACCGA | -0.0132 ± 0.073 |
| AATCTAGG | -0.269 ± 0.042 |
| AGCGTGTA | 0.0613 ± 0.047 |
| ACAGTGTG | 0.324 ± 0.025 |
| CAAAAGCG | 0.138 ± 0.031 |
| GGAATTCA | -0.126 ± 0.052 |
| ACAAAACT | 0.113 ± 0.034 |
| CACGGGGG | -0.0744 ± 0.039 |
| TGACCTCA | 0.0125 ± 0.0081 |
| CAATGCTG | -0.0887 ± 0.031 |
| GGAGTACA | -0.0974 ± 0.13 |
| CTTGGCAA | -0.0038 ± 0.016 |
| CAGATCTG | 0.268 ± 0.011 |
| AATTAAGT | -0.108 ± 0.029 |
| AATTCAGA | -0.232 ± 0.0091 |
| CGACAAAC | 0.14 ± 0.017 |

| Sequence | PBM E-score of 8-mer |
| --- | --- |
| ACTGGAGC | -0.177 ± 0.049 |
| CGTCGTAC | -0.085 ± 0.041 |
| GGCACGAA | -0.0223 ± 0.015 |
| CTACGTAA | 0.0155 ± 0.049 |
| ATGCCTGC | -0.314 ± 0.012 |
| CATACAGA | -0.0697 ± 0.024 |
| ATGGAGGC | -0.0262 ± 0.056 |
| AAGTTCGA | -0.131 ± 0.11 |
| GCCGTCAA | 0.156 ± 0.01 |
| CGAGCTTA | -0.176 ± 0.028 |
| CCTGATCC | -0.0701 ± 0.017 |
| AAGCTTGT | -0.1801 ± 0.00038 |
| CTTCTGCC | -0.103 ± 0.076 |
| GTTTGGCA | 0.17 ± 0.02 |
| AGCGACAA | 0.255 ± 0.0028 |
| AAGGTTTG | -0.16 ± 0.015 |
| TATGGCAA | -0.0237 ± 0.04 |
| CCTATCTC | 0.051 ± 0.029 |
| GACGGCTC | 0.00758 ± 0.05 |
| CTGGAGCA | -0.099 ± 0.0075 |
| AAATACCC | -0.223 ± 0.014 |
| GCAAAGCA | -0.0314 ± 0.027 |
| GCTCGGCC | -0.121 ± 0.032 |
| CTCCCGTC | -0.132 ± 0.03 |
| ACAGTACT | -0.0664 ± 0.074 |

| Sequence | PBM E-score of 8-mer |
| --- | --- |
| AGGGCTCA | -0.236 ± 0.018 |
| AATCGGGA | -0.208 ± 0.076 |
| CTATCGAC | 0.147 ± 0.0049 |
| CTGTACGC | -0.178 ± 0.013 |
| GCCGAAAA | 0.0405 ± 0.0032 |
| AGTCAACT | -0.0153 ± 0.019 |
| CTAGTGCA | 0.173 ± 0.0046 |
| CAATCGGC | 0.0473 ± 0.059 |
| ACAAATTC | 0.115 ± 0.1 |
| GCCAAACA | 0.102 ± 0.074 |
| TGTGCCAA | 0.351 ± 0.013 |
| CCTGACAG | 0.218 ± 0.036 |
| GCCGCACC | 0.321 ± 0.033 |
| CACAATAA | 0.103 ± 0.028 |
| CCAAGCTC | -0.0491 ± 0.14 |
| CAGTATTC | -0.15 ± 0.028 |
| CGCGGTAA | 0.0896 ± 0.008 |
| AGGGCCTC | -0.399 ± 0.0047 |
| AAGGCTGT | 0.0931 ± 0.0023 |
| GGTCGAAA | -0.0937 ± 0.033 |
| GACCCTAC | -0.0737 ± 0.034 |
| GGTACTCA | -0.0327 ± 0.053 |
| ATAGCGAT | -0.052 ± 0.021 |
| GCACCATA | 0.156 ± 0.064 |
| CTGCCGTA | -0.161 ± 0.059 |

| Sequence | PBM E-score of 8-mer |
| --- | --- |
| CTTTTGTC | 0.0595 ± 0.045 |
| TATCACAA | 0.281 ± 0.017 |
| CCCTTCAC | 0.229 ± 0.015 |
| GGTTCGTA | -0.182 ± 0.095 |
| CATTTTAG | 0.0773 ± 0.053 |
| CGCTCCAC | -0.125 ± 0.023 |
| ACAGCCTC | -0.206 ± 0.14 |
| TCTTTACA | 0.0932 ± 0.053 |
| AGCTAAAA | 0.0801 ± 0.06 |
| ATGGCATG | 0.078 ± 0.007 |
| TAGAGCAA | -0.214 ± 0.052 |
| ATTCGAAG | -0.00995 ± 0.11 |
| GTCGGCGA | 0.0977 ± 0.03 |
| TGATCGAA | -0.129 ± 0.1 |
| CAGCTCAG | 0.145 ± 0.031 |
| AATGGTGT | 0.292 ± 0.018 |
| ATATTTCC | -0.126 ± 0.024 |
| CCTGTCCC | -0.0942 ± 0.023 |
| TATGCCGA | -0.197 ± 0.039 |
| AGAACCTG | -0.0359 ± 0.059 |
| ATGTCGTA | -0.0353 ± 0.021 |
| GATTAAAC | 0.139 ± 0.024 |
| CGTGTCCA | 0.00534 ± 0.099 |
| TAACGATA | -0.0923 ± 0.086 |
| AGGGACTC | -0.0609 ± 0.055 |

| Sequence | PBM E-score of 8-mer |
| --- | --- |
| AGGGCGGA | -0.0315 ± 0.029 |
| ACCAAGTG | 0.222 ± 0.05 |
| ACAGTTGC | 0.262 ± 0.0077 |
| ATTTACCA | -0.05 ± 0.059 |
| CCGCTTCC | 0.087 ± 0.0016 |
| CCACTTAA | -0.0162 ± 0.043 |
| AGGTGCTC | 0.0655 ± 0.042 |
| AAGAGATC | 0.00823 ± 0.069 |
| CATCTACG | 0.0477 ± 0.028 |
| AGCCCCAC | 0.0504 ± 0.11 |
| AAACTCGC | 0.231 ± 0.024 |
| ACAGTGGC | 0.07305 ± 0.00037 |
| GGGCTGGA | -0.355 ± 0.0071 |
| CGTTCAAG | -0.177 ± 0.028 |
| GCAGAGGA | -0.211 ± 0.024 |
| TCCCATAA | -0.125 ± 0.013 |
| AACACAGT | 0.1819 ± 0.0004 |
| CAGTAACG | 0.091 ± 0.075 |
| TACCTCGA | -0.0364 ± 0.012 |
| GATACCGA | -0.102 ± 0.048 |
| GAGAGTAC | 0.0197 ± 0.044 |
| GGATACCA | -0.0944 ± 0.016 |
| AAGGTCGT | -0.204 ± 0.0052 |
| AGGGAGTC | -0.0843 ± 0.062 |
| AAAGCCTC | 0.138 ± 0.0031 |

| Sequence | PBM E-score of 8-mer |
| --- | --- |
| AGTGGAGC | -0.0254 ± 0.067 |
| ATAAATCA | 0.0299 ± 0.034 |
| CGGAGCTA | -0.182 ± 0.069 |
| AGGTGGCA | 0.436 ± 0.0087 |
| CCGGTGAA | -0.0943 ± 0.01 |
| TATGCCAA | 0.0587 ± 0.026 |
| AACTTGAC | 0.196 ± 0.018 |
| CTACGGAA | -0.177 ± 0.0062 |
| CCCTGCAC | -0.00434 ± 0.053 |
| GCATTAGA | -0.381 ± 0.068 |
| GCGCCGAC | -0.0176 ± 0.051 |
| GCCTGTTA | 0.0194 ± 0.033 |
| GGCAACCA | 0.0351 ± 0.0081 |
| AGATGAAG | -0.107 ± 0.02 |
| ACTCATGG | -0.044 ± 0.047 |
| ATTTCTTC | 0.0759 ± 0.0039 |
| AGGGGCTG | -0.18 ± 0.047 |
| CCATTGCA | -0.131 ± 0.092 |
| CAATTGAC | 0.222 ± 0.041 |
| CTCGAACA | 0.0472 ± 0.016 |
| ACCGACCG | -0.131 ± 0.016 |
| AGTTCTAC | -0.0436 ± 0.026 |
| CCGTAGCC | -0.183 ± 0.079 |
| ACTTACTG | -0.0442 ± 0.021 |
| CCACCGCC | -0.0493 ± 0.11 |

| Sequence | PBM E-score of 8-mer |
| --- | --- |
| ATTTGGCA | 0.26 ± 0.045 |
| GAGACTCA | -0.19 ± 0.039 |
| CTGCTTAA | 0.00768 ± 0.037 |
| CTGCCCAG | -0.263 ± 0.069 |
| CCAGTTAG | -0.128 ± 0.055 |
| CTGAAGTA | -0.209 ± 0.028 |
| ACAACGTG | 0.203 ± 0.024 |
| CAGCTAAG | 0.112 ± 0.035 |
| CGGCAACG | 0.0825 ± 0.062 |
| GGCTAGAC | -0.231 ± 0.029 |
| CTATCCTA | -0.171 ± 0.017 |
| CGGTAATC | -0.167 ± 0.016 |
| GCAAATCC | -0.167 ± 0.1 |
| AGCATCCA | -0.276 ± 0.016 |
| ATGGTTAG | 0.0164 ± 0.081 |
| CTCCACAC | 0.341 ± 0.0092 |
| AACCGGAG | 0.0722 ± 0.034 |
| CTGCAAAG | 0.0565 ± 0.011 |
| GGGGAGCA | -0.293 ± 0.047 |
| GCCGCCAC | 0.154 ± 0.13 |
| AACACCAT | 0.3887 ± 0.0029 |
| ACAAAAAT | 0.0628 ± 0.14 |
